{"source": "PubChem BioAssay AID602310", "about": "(National Center for Advancing Translational Sciences (NCATS), 2012)", "note": "Where “and” joins values, the source holds several entries; their conditions need not be identical. Identical values can stand only once. The campaign covered roughly 410,000 compounds. About 310 (0.076%) were called active. This list was built around the results that the source calls inconclusive (neither active nor inactive); the mix of calls is not that of the screen. Calls follow the shape of the dose curve; as a rule, active = well fitted curve in the direction sought with a large enough effect; inconclusive = small, poorly fitted or top-dose-only effect; inactive = flat fitted curve, though single readings scatter. Potencies beside an inconclusive call are fits to weak or partial responses and may not hold up. Potency is read from the fitted curve at half-maximal effect; tags tell the direction and shape of the fitted curve.", "data": [{"molecular_target": "DNA dC->dU-editing enzyme APOBEC-3G (Homo sapiens) (UniProt Q9HC16)", "sequence (Q9HC16 whole entry, looked up)": "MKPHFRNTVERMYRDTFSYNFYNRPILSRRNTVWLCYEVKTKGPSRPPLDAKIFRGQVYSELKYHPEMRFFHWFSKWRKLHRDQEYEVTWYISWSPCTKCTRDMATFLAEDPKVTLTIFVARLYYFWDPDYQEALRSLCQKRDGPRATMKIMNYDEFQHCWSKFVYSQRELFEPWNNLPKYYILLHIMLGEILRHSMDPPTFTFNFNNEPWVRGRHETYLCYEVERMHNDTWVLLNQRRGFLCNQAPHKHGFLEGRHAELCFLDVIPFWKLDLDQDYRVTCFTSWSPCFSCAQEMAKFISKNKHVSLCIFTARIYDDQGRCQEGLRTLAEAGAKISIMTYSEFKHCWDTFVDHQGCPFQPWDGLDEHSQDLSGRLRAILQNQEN", "experiment": "qHTS for Inhibitors of Vif-A3G Interactions: qHTS; also: nearly all actives have a fitted effect of over 60% in size", "conditions": "HeLa A3G-eYFP + Vif (tagged APOBEC3G with the HIV-1 protein that degrades it), YFP fluorescence, overnight; series mostly up to 46.1 µM", "procedure,_shortened": "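Read-out is eYFP fluorescence (Ex 488/Em 500-530) from Vif-expressing HeLa A3G-eYFP cells; more signal means A3G escaped Vif-mediated degradation. Cells plated overnight, compound pinned in, incubated overnight at 37 deg C.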", "values": [{"compound": "CCOC(=O)c1c(N)n(CCN2CCCCC2)c2nc3ccccc3nc12", "Potency": "inactive"}, {"compound": "COc1ccc(C2CC(c3c(O)n(CCc4ccccc4)c(=O)[nH]c3=O)=NN2)cc1OC", "note": "(stereo not given)", "Potency": "inactive"}, {"compound": "Cc1ccccc1N1C(=O)NC(=O)/C(=C\\c2cc(Br)c(N3CCOCC3)o2)C1=O", "Potency": "inactive"}, {"compound": "CCN(CC)c1ccc(C=C2C(=O)N(C)C(=S)N(C)C2=O)o1", "Potency": "inconclusive: 7.94 µM [inhibitor, partial curve, poor fit]"}, {"compound": "CCOC(=O)C1CCN(C=C2C(=O)N(C)C(=S)N(C)C2=O)CC1", "Potency": "inconclusive: 22.4 µM [inhibitor, single point]"}, {"compound": "COc1cc(CNCCc2c[nH]c3ccccc23)cc(OC)c1OC", "Potency": "inactive"}, {"compound": "CCCCCCCCCCCCCCCC[n+]1ccccc1", "Potency": "inconclusive: 35.5 µM [inhibitor, single point]"}, {"compound": "COc1cc(/C=C/c2ccc3ccccc3[n+]2C)cc(OC)c1OC", "Potency": "inconclusive: 15.8 µM [inhibitor, single point]"}, {"compound": "COC(=O)C1CN(C#N)N(c2ccc(Cl)cc2)C12c1ccccc1-c1ccccc12", "note": "(stereo not given)", "Potency": "inconclusive: 2.24 µM [inhibitor, full curve, poor fit]"}, {"compound": "CCn1c(O)c(C=NCc2cccs2)c(=O)n(CC)c1=S", "Potency": "inconclusive: 7.08 µM [inhibitor, partial curve, poor fit]"}, {"compound": "COCCNC(=O)c1c(NC(=O)c2ccc(Br)o2)n(Cc2ccccc2)c2nc3ccccc3nc12", "Potency": "inconclusive: 8.91 µM [inhibitor, partial curve]"}, {"compound": "C/C(=N\\NC(N)=S)C12CC3CC(CC(C3)C1)C2", "Potency": "inconclusive: 3.55 µM [inhibitor, full curve, poor fit]"}, {"compound": "COc1ccc(Cl)cc1C(=O)C1CCCN(CCO)C1", "note": "(stereo not given)", "Potency": "inactive"}, {"compound": "CN(C(=O)CNC(=O)OCc1ccccc1)c1ccc(Br)cc1C(=O)c1ccccc1Cl", "Potency": "inconclusive: 1.26 µM [inhibitor, partial curve, poor fit]"}, {"compound": "CN(C)[C@@H]1C(=O)C(C(N)=O)=C(O)[C@@]2(O)C(=O)C3=C(O)c4c(O)cccc4[C@@](C)(O)[C@H]3[C@H](O)[C@@H]12", "Potency": "inconclusive: 35.5 µM [inhibitor, partial curve, poor fit]"}, {"compound": "Cc1ccc(OCCn2cccc2/C=C2/C(=O)NC(=O)N(Cc3ccco3)C2=O)cc1", "Potency": "inactive"}, {"compound": "COc1cc([C@@H]2c3cc4c(cc3[C@H](OC(C)=O)[C@H]3COC(=O)[C@@H]23)OCO4)cc(OC)c1OC", "Potency": "inconclusive: 1.12 µM [inhibitor, full curve, poor fit]"}, {"compound": "O=C(c1ccc2c(c1)ncn2-c1ccc(F)cc1F)N1CCC2(CC1)OCCO2", "Potency": "inconclusive: 10 µM [inhibitor, partial curve, poor fit]"}, {"compound": "On1ccccc1=S", "Potency": "inconclusive: 6.31 µM [inhibitor, full curve]"}, {"compound": "CCCCn1c(O)c(/C=C2/C=CC=N2)c(=O)[nH]c1=O", "Potency": "active: 10 µM"}, {"compound": "CCCCN=C[C@]12CCC(O)CC1(O)CCC1[C@@H]2CC[C@]2(C)[C@H](C3C=CC(=O)O3)CCC12O", "note": "(stereo not given in full)", "Potency": "inactive"}, {"compound": "CCCCNC(=O)/C(C#N)=c1\\s/c(=C\\c2ccccc2OC(F)F)c(=O)n1CCCOC", "Potency": "inconclusive: 5.62 µM [inhibitor, single point]"}, {"compound": "Cc1cc(O)c2c(c1)C(=O)C13C(=C2O)C(=O)[C@H]2[C@@H](O)[C@@H]1[C@H]1[C@H](O)[C@@H]3C(=O)C3=C(O)c4c(O)cc(C)cc4C(=O)C312", "note": "(stereo not given in full)", "Potency": "inconclusive: 10 µM [inhibitor, partial curve, poor fit]"}, {"compound": "COc1cc(C(c2c(C)[nH]n(-c3ccccc3)c2=O)c2c(C)[nH]n(-c3ccccc3)c2=O)cc(OC)c1OC", "Potency": "inactive"}, {"compound": "O=C(COc1ccccc1)c1cn(Cc2ccccc2)c2ccccc12", "Potency": "inconclusive: 22.4 µM [inhibitor, single point]"}, {"compound": "O=C(NC1(C(F)(F)F)Oc2ccccc2O1)N1CCC2(CC1)OCCO2", "Potency": "inconclusive: 35.5 µM [inhibitor, single point]"}, {"compound": "ClCCN(CCCl)c1ccc(/C=C/c2sc3ccccc3[n+]2CCCCI)cc1", "Potency": "inconclusive: 35.5 µM [inhibitor, single point]"}, {"compound": "CN(C)c1ccc(C(=O)c2ccc(N(C)C)cc2)cc1", "Potency": "inconclusive: 1.58 µM [inhibitor, full curve, poor fit]"}, {"compound": "CCN(CC)c1ccc(N=Cc2c(O)n(CCC3=CCCCC3)c(=O)[nH]c2=O)cc1", "Potency": "inactive"}, {"compound": "O=C1CN(O)C(c2ccccc2Cl)=c2cc(Br)ccc2=N1", "Potency": "inactive"}, {"compound": "[Cl][Pt+2][Cl].[NH-]C1CCCCC1[NH-]", "note": "(stereo not given)", "Potency": "inactive"}, {"compound": "Cc1cc(/C=C2/C(=O)NC(=O)N(C)C2=O)c(C)n1-c1ccccc1", "Potency": "inactive"}, {"compound": "N#Cc1c(Br)n(C2OC(CO)C(O)C2O)c2ncnc(N)c12", "note": "(stereo not given)", "Potency": "inconclusive: 15.8 µM [inhibitor, single point]"}, {"compound": "COc1cc(CN2C(=O)NC(=O)C3(Cc4cc(C)ccc4N(C)C3)C2=O)cc(OC)c1", "note": "(stereo not given)", "Potency": "inconclusive: 22.4 µM [inhibitor, single point]"}, {"compound": "CN1C(=O)/C(=C\\c2ccc(N3CCCCC3)o2)C(=O)NC1=S", "Potency": "inconclusive: 11.2 µM [inhibitor, partial curve, poor fit]"}, {"compound": "Cc1ccc(-c2cc(-c3ccccc3)cc(-c3ccccc3)[n+]2-c2ccccc2)cc1", "Potency": "inconclusive: 22.4 µM [inhibitor, single point]"}, {"compound": "C=C1C(=O)OC2C1CCC(C)C1(O)C=CC(=O)C21C", "note": "(stereo not given)", "Potency": "inconclusive: 3.55 µM [inhibitor, full curve]"}, {"compound": "COC1CC(C)C(OC)c2cc(O)cc(c2O)NC(=O)C(C)=CC=CC(C)C(OC(N)=O)C(C)=CC(C)C1OC", "note": "(stereo not given)", "Potency": "inconclusive: 22.4 µM [inhibitor, single point]"}, {"compound": "COc1ccc(CN2Cc3cnnn3-c3ccccc3C2C#N)cc1", "note": "(stereo not given)", "Potency": "inconclusive: 8.91 µM [inhibitor, partial curve]"}, {"compound": "Cc1cc(Cl)ccc1C(=O)C1CCCN(C2CCSCC2)C1", "note": "(stereo not given)", "Potency": "inactive"}, {"compound": "Clc1cccc(N2Cc3cc(-c4ccccc4)ccc3-n3nncc3C2)c1", "Potency": "inconclusive: 7.94 µM [inhibitor, partial curve]"}, {"compound": "Cc1ccc(N2C(=O)NC(=O)/C(=C/c3cnc(-c4ccccc4)nc3)C2=O)cc1C", "Potency": "inconclusive: 11.2 µM [inhibitor, partial curve]"}, {"compound": "COc1ccccc1N1C(=O)NC(=O)/C(=C\\c2cnn(-c3ccccc3)c2)C1=O", "Potency": "inconclusive: 31.6 µM [inhibitor, single point]"}, {"compound": "COc1ccc(N2C(=O)/C(=C/c3cc(C)n(-c4ccc(C)cn4)c3C)C(=O)NC2=S)c(OC)c1", "Potency": "inactive"}, {"compound": "COc1cccc(-n2c(/C=C/c3ccc(O)c(O)c3)nc3ccccc3c2=O)c1", "Potency": "inactive"}, {"compound": "COc1ccc(/C=N\\NC(=O)c2cccc(F)c2)cc1COc1ccccc1", "Potency": "inconclusive: 0.355 µM [inhibitor, partial curve, poor fit]"}, {"compound": "COc1ccc(C(C)=O)cc1CC(C(=O)c1ccccc1)N(C)C", "note": "(stereo not given)", "Potency": "inconclusive: 17.8 µM [inhibitor, single point]"}, {"compound": "CC(C)c1ccc(N2C(=O)NC(=O)/C(=C/C=C/c3ccco3)C2=O)cc1", "Potency": "active: 8.91 µM"}, {"compound": "O=C1NC(=O)N(Cc2ccccc2Cl)C(=O)/C1=C/c1cccs1", "Potency": "inconclusive: 22.4 µM [inhibitor, single point]"}, {"compound": "Cc1ccc(-n2c(/C=C/c3ccc(Br)s3)nc3ccccc3c2=O)cc1C", "Potency": "inconclusive: 35.5 µM [inhibitor, single point]"}, {"compound": "CCC1(c2ccccc2)C(=O)N(C)C(=O)N(C)C1=O", "Potency": "inactive"}, {"compound": "CC(C)CCNC(=O)CN1C(=O)CN=C(c2ccccc2)c2ccccc21", "Potency": "inactive"}, {"compound": "CCSc1cc(C2C(C#N)=C(N)Oc3n[nH]c(C)c32)c(C)o1", "note": "(stereo not given)", "Potency": "inconclusive: 25.1 µM [inhibitor, single point]"}, {"compound": "O=C1NC(=O)N(Cc2ccc(F)cc2)C(=O)/C1=C\\C=C\\c1ccco1", "Potency": "inconclusive: 35.5 µM [inhibitor, single point]"}, {"compound": "COc1ccc(-n2cnc3cc(C(=O)N4CCC5(CC4)OCCO5)ccc32)cc1", "Potency": "inconclusive: 12.6 µM [inhibitor, partial curve]"}, {"compound": "O=C1NC(=O)N(c2cccc(Br)c2)C(=O)/C1=C/c1ccsc1", "Potency": "inconclusive: 35.5 µM [inhibitor, single point]"}, {"compound": "O=C1NC(=O)N(CCc2ccc(F)cc2)C(=O)/C1=C/C=C/c1ccccc1", "Potency": "inconclusive: 22.4 µM [inhibitor, single point]"}, {"compound": "c1ccc(CCN2CCCCC2)cc1", "Potency": "inactive"}, {"compound": "c1cc2c(cc1NC1=NCCO1)CCCC2", "Potency": "inconclusive: 15.8 µM [inhibitor, single point]"}, {"compound": "O=C1NC(=S)NC(=O)C1=Cc1ccc(Br)s1", "Potency": "inconclusive: 22.4 µM [inhibitor, single point]"}, {"compound": "CCCSc1ccc2nc(NC(=O)OC)[nH]c2c1", "Potency": "inconclusive: 1.12 µM [inhibitor, full curve, poor fit] and inconclusive: 1 µM [inhibitor, full curve, poor fit]"}, {"compound": "Cn1c(=O)oc2cc(NC(=O)CCl)ccc21", "Potency": "inconclusive: 35.5 µM [inhibitor, single point]"}, {"compound": "CCCCn1c(O)c(C(CC)=NC(C)c2ccccc2)c(=O)[nH]c1=O", "note": "(stereo not given)", "Potency": "inconclusive: 11.2 µM [inhibitor, partial curve]"}, {"compound": "O=C1C(=Cc2cn(-c3ccccc3)nc2-c2ccc(OCc3ccc(Cl)cc3)cc2)SC(=S)N1CCS(=O)(=O)O", "Potency": "inconclusive: 35.5 µM [inhibitor, partial curve, poor fit]"}, {"compound": "C#CCOc1cc(C2C3=C(COC3=O)Nc3cc4c(cc32)OCO4)ccc1OC", "note": "(stereo not given)", "Potency": "inconclusive: 0.631 µM [inhibitor, full curve, poor fit]"}]}]}
